# Measurements as given in the supplement of paper PMC3334620.
# Over roughly 33,000 sequences, “E-score (-0.5 to 0.5)” has its median near -0.041; the highest 2% begin near 0.37. Some of the results follow.
# Biological target: T1, Ecm22 (UniProt Q05958)
# T1 sequence: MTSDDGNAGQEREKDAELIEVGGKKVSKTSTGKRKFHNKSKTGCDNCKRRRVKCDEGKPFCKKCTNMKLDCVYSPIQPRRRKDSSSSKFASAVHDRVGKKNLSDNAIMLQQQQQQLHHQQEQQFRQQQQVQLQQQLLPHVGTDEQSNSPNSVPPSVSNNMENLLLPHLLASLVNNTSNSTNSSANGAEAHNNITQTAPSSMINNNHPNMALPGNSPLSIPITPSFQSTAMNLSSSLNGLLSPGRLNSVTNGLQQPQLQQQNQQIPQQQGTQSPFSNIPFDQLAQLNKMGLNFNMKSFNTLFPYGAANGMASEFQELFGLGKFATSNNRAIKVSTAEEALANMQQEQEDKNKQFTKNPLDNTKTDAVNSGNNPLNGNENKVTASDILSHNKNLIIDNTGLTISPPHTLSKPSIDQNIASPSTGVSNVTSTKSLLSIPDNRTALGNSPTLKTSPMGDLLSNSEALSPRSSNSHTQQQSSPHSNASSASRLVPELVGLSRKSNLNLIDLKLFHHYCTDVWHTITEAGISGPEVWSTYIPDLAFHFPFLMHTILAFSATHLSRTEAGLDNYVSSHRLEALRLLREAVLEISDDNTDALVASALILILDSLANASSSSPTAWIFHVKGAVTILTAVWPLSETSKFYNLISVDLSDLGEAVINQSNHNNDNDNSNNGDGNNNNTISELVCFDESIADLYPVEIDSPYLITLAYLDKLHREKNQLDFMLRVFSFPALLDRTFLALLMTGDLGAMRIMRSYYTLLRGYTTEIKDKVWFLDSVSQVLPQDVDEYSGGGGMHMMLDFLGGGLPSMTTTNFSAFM
# Assay: PBM E-score (8-mer binding enrichment) (E-score (-0.5 to 0.5)); higher = stronger / more preferred TF binding; most listed sequences are background and not binding sites
# Settings: protein concentration: 200 nM; construct: GST-full length
# Summary of the method: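 GST-tagged yeast TFs (full-length or DNA-binding domain) were made by PURExpress in vitro transcription/translation and applied at about 100-200 nM to universal all-10-mer Agilent arrays. The arrays were made double-stranded by primer extension, on fresh or once-stripped slides. Bound protein was detected with fluorescent anti-GST, and scans were normalised with masliner. Each ungapped eight-base word, pooled with its reverse complement, received an E-score (modified Wilcoxon-Mann-Whitney statistic) from the Universal PBM Analysis Suite.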
row,Sequence,PBM E-score
1,ATGTAGAG,-0.101
2,CCCTCTAG,-0.322
3,CAAAATTG,-0.094
4,CACAATGA,-0.0919
5,CCCTCTGC,-0.195
6,CCGATACA,0.164
7,AATGGCGG,-0.175
8,CTCAAACC,-0.188
9,ATGCTGCG,-0.145
10,GTACAGAC,0.207
11,ACTAGTTG,-0.265
12,CGAGGGAG,0.118
13,CCATCTTA,-0.00038
14,CACAGTAG,0.0919
15,AATCGGTC,0.144
16,ATCGTAAG,0.308
17,CCCGCGAA,0.0102
18,CGTGCATC,-0.0497
19,AGTAAAAC,0.117
20,ACTGCCGC,-0.118
21,GAAGATCC,-0.189
22,CAGCTAGA,-0.0476
23,AACGTTTG,0.137
24,CATAGAAC,-0.0306
25,GTGCTCTA,-0.142

row,Sequence,PBM E-score
1,AGATAACA,-0.128
2,ATGCAGAC,-0.0112
3,TCAGGCAA,-0.109
4,CCCATGAA,-0.177
5,CTTCCAAA,-0.164
6,CGGAGCTC,-0.157
7,CCTTTTAC,-0.0016
8,AACAAATG,0.12
9,GGACATAC,0.176
10,ACTTAGAT,0.0719
11,CGTTTGCA,0.354
12,CAATGCTA,-0.136
13,CCGCTCGC,0.186
14,AGGCCAAA,-0.151
15,CAAGGAAC,0.249
16,CTGTCGAA,-0.00303
17,AGTGATAA,-0.166
18,AAAGCAAG,0.0938
19,GCTTAAGA,0.0878
20,AAGATTCG,0.193
21,AGCTAACG,0.0855
22,CTCAAGGA,-0.308
23,AAGCGCTG,-0.0362
24,ACCCATAG,-0.161
25,TCAGCCGA,0.00199

row,Sequence,PBM E-score
1,AAGACCTC,-0.2
2,GCAGGACA,-0.0743
3,CTGTTACA,-0.15
4,CCTCGCTA,0.215
5,ATATAAGA,0.0784
6,AAATAAGA,-0.0512
7,ACCCGTTA,0.239
8,GAAACCAA,-0.0549
9,AAGCGCGC,0.223
10,ACGTGCTG,0.0683
11,CCGAGTTC,0.206
12,TCCGGGCA,0.138
13,ATAGGGCC,-0.173
14,TCCTAGAA,-0.115
15,CCTCGATC,0.0936
16,CGATACGC,0.2
17,AGTGTTCA,-0.248
18,CTGTGCCC,-0.213
19,GAGGAGAC,-0.0502
20,ACCCGTCC,-0.336
21,CCTTTAGC,-0.073
22,CATACCGC,-0.0365
23,GCCTCCAC,-0.192
24,AGCTCGTG,0.182
25,ACCGATCC,-0.0178

row,Sequence,PBM E-score
1,AAACGTTT,0.328
2,CTGCACGA,0.0961
3,TGGGGGAA,-0.152
4,GTCACCAA,-0.232
5,AATGGGGA,-0.15
6,ACGCGCTG,-0.0321
7,CCACGGTA,-0.146
8,GACACAAC,-0.157
9,GCATATGA,0.0806
10,AAACAGTA,0.0907
11,AATGGGCG,0.0232
12,AAGAGTTA,-0.162
13,CGAGCCTA,0.0933
14,ATGTTTTA,-0.0842
15,AGCATCTG,-0.0174
16,TAACCTGA,-0.106
17,AGAGAGCC,-0.152
18,ACGAATCC,0.319
19,CTTTTATA,-0.0606
20,TACAACCA,0.0482
21,AGCTCTCC,-0.11
22,CCGCAGTC,0.0772
23,CCTTACAG,-0.129
24,ACGGACGA,0.171
25,TTGATCAA,0.211

row,Sequence,PBM E-score
1,CCAAGCCC,-0.117
2,CAGTAACA,-0.107
3,GTTGCGGA,0.129
4,GTGGGATA,0.0634
5,ATCAGTGG,-0.221
6,ACATTGGG,-0.136
7,TACTTAGA,-0.0709
8,AGAGGGCC,-0.0916
9,AAATTGGG,-0.058
10,ATTCTACA,0.0155
11,ACCAGGCA,-0.226
12,CTAACGCC,-0.00716
13,AATATGGC,-0.0366
14,AGTGCACA,0.0795
15,CAAAATGC,0.0177
16,AGCCTGTC,0.0499
17,AGGGTTAT,-0.0839
18,GCTATGTA,-0.0962
19,CCATGAGA,-0.118
20,ATGCGCCC,-0.0414
21,AGCTGGAG,-0.0565
22,ATCGTTTA,0.483
23,CGTTGGGA,-0.0369
24,ATGAAGGG,-0.107
25,GACAGTAA,-0.0178

row,Sequence,PBM E-score
1,TGAATAAA,-0.0615
2,GCCAGACC,-0.171
3,CTACGGAG,-0.0418
4,CGGGATAG,0.0594
5,AGGGCTTG,-0.105
6,CAAGCTAC,-0.0798
7,CGCCGAAG,-0.0988
8,ACCACTGG,-0.142
9,ACTGCAAT,-0.047
10,GCCCAGGC,-0.235
11,AGCAGCAG,-0.0665
12,ACTCGCGA,0.287
13,GACGCGCC,0.219
14,CGACCACA,0.12
15,ACAATTCC,-0.298
16,ACAACGAA,0.257
17,AGGGGGCA,-0.324
18,AAGAAACT,-0.108
19,CGATCCCA,0.0456
20,ATCTGTTA,-0.11
21,GTGGTATA,0.0154
22,CAAAATGA,-0.138
23,ATTATGGC,-0.251
24,AACATAAT,0.0914
25,CCTTATCC,-0.225

row,Sequence,PBM E-score
1,ACGAGCAA,0.288
2,CCCCCTGA,-0.285
3,CAATGAAC,0.0859
4,ACACCACG,-0.0976
5,AGATCCTC,0.0746
6,CAATTTTC,0.106
7,CTATCGTA,0.406
8,ACCATGAG,-0.073
9,AGTTAACT,-0.251
10,CATGTCAA,-0.144
11,CCAAAGCG,-0.0926
12,ATATTGGG,-0.0204
13,GAATCAGC,-0.27
14,AATGACCC,-0.0567
15,AGAGCGCG,0.0848
16,CCCTATTA,-0.197
17,ACAGGGTG,-0.25
18,ATCTCAAC,0.105
19,CAGGCCAA,-0.146
20,CATCGAAA,0.0838
21,ACTCGATA,0.138
22,AATGTCGG,0.14
23,CCCCTATA,-0.212
24,AATACGCG,0.17
25,TATCATCA,-0.00465

row,Sequence,PBM E-score
1,GTCAACTA,-0.244
2,GGCGTTAA,-0.0419
3,ACAGCGGT,-0.208
4,ATCACGGA,0.0454
5,CCGTGTCG,0.127
6,ACAGAGCC,-0.232
7,CACCAATC,-0.176
8,CTGGCAGA,-0.138
9,ACGAGTCT,0.324
10,CTACGTCA,-0.0319
11,CACGTTAG,-0.107
12,GCTTAAAC,0.252
13,CCGCATAG,0.0973
14,CTCGCCAA,0.148
15,ATTCCGTA,0.284
16,ATCACCGG,-0.234
17,ATTTGGTG,-0.217
18,ACCATGTA,-0.123
19,CATTACTC,-0.0965
20,AGGAGCAG,-0.223
21,GTAATGAA,-0.109
22,AAACCATT,-0.279
23,ATGTGCCC,-0.108
24,CCTGAGTC,-0.0512
25,GAGAACGC,0.117

row,Sequence,PBM E-score
1,AAACTCGA,0.00475
2,CTGCTCGA,-0.0938
3,ACCATATG,-0.247
4,TAGCCCCA,-0.188
5,AGGTCCAG,0.0166
6,CAGAAGAC,-0.11
7,CGCGTGCC,0.0483
8,CTAAGGAA,0.111
9,GTGAGGCA,-0.0698
10,CCCCCTCC,-0.275
11,ACACATGG,-0.138
12,AAGTCCCT,-0.283
13,TCCCCTCA,-0.281
14,GGAGAAGA,-0.239
15,CTTTGCTA,-0.111
16,CGCCGTAA,0.26
17,GCGTTTAC,0.227
18,CCTGCACG,-0.124
19,AAGGTAGC,-0.175
